Structures can show the parent of a compound that is named as a salt.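 96-well plates; 48 h exposure; 5 concentrations. Endpoints by linear interpolation between flanking doses. Not reached: highest tested concentration assigned. GI50 is the concentration that inhibits growth by half.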 Activity calls are given as the source filed them. Cut-off read from the data, not from the text of the source: active = GI50 up to about 1.1 µM and inactive = higher. Peptide text beside a SMILES is read from it.
The molecules below were run on NCI-H322M (assay: growth of human tumour cells (NCI), 48 h).
With `O=C1CS(=O)(=O)C(c2cccc(Oc3ccccc3)c2)N1c1cc(Cl)ccc1Cl` (stereo not given) the GI50 was inactive: 45 µM.
In the case of `CC(=O)NC(CCCCNC(=O)N(CCCl)N=O)C(=O)NCc1ccccc1` (stereo not given), the GI50 is reported as inactive: > 100 µM.
`COC(=O)N1C=CC2=C(C)C3Nc4ccccc4C3C(C)=C2C1` (stereo not given) was tested, and the GI50 was inactive: 1.12 µM.
In the case of `CCC(C)(C)/C(CC(O)(C(F)(F)F)C(F)(F)F)=N\O`, the GI50 is reported as inactive: > 100 µM.
In the case of `CCOC(=O)c1ccc(/N=C2/C(=S)N(c3ccc(C(=O)OCC)cc3)C(=N)N2/N=C/c2ccccc2)cc1`, the GI50 is reported as inactive: 42.1 µM.
With `COc1ccc([C@@]23CCC(=O)C[C@@H]2N(C)CC3)cc1OC` the GI50 was inactive: > 100 µM.
With `c1ccc2c(c1)cc1n2CC2CN=NC12` (stereo not given) the GI50 was inactive: > 100 µM.
For `C/N=C(\N=c1/ss/c(=N\C)n1C)N(C)C.[O-][Cl+3]([O-])([O-])O`, the GI50 was inactive: > 100 µM.
`[N-]=[N+]=CC(=O)OCC1SCCCS1` was tested, and the GI50 was inactive: > 100 µM.
In the case of `CCCN(CCC)C1=Nc2ccccc2-n2cnnc2C1`, the GI50 is reported as inactive: > 100 µM.
In the case of `O=C(O)c1ccc(Nc2nc3nn(Cc4ccccc4)cc3c(=O)s2)cc1`, the GI50 is reported as inactive: > 100 µM.
`NC1=Nc2ccccc2Sc2nc3ccccc3n21` was tested, and the GI50 was inactive: 56.5 µM.
In the case of `COc1c2c(c3c(c1CCC(=O)O)OC(C)(C)C=C3)OC(C)(C)C=C2`, the GI50 is reported as inactive: > 100 µM.
With `O=C1C2C3C=CC(C2C(=O)N1CN1CCSCC1)C1C2C(=O)N(CN4CCSCC4)C(=O)C2C31` (stereo not given) the GI50 was inactive: > 100 µM.
For `CC(C)=C=CP(=O)(O)c1ccccc1`, the GI50 was inactive: > 100 µM.
In the case of `N#CCCN(CCN(C(=O)Nc1ccccc1)c1ccccc1)C(=O)Nc1ccccc1`, the GI50 is reported as inactive: > 100 µM.
In the case of `CCOC(=O)c1cc(-c2ccc(OC)c(OC)c2)c[nH]1`, the GI50 is reported as inactive: > 10 µM.
For `O=C(/C=C(\O)c1cc(-c2ccccc2)n(-c2ccccc2)n1)c1ccccc1`, the GI50 was inactive: 11 µM.
In the case of `CNNCc1ccc(C(=O)NC(C)C)cc1` [PROCARBAZINE HYDROCHLORIDE], the GI50 is reported as inactive: > 500 µM.
`O=C(O)c1ccc2[nH]c(=O)oc2c1` was tested, and the GI50 was inactive: > 100 µM.
`CC(=O)N1c2ccccc2C(C)C1c1[nH]c2ccccc2c1C` (stereo not given) was tested, and the GI50 was inactive: 23.2 µM.
In the case of `C[C@@H]1C[C@@H](O)[C@]2(O)O[C@@H]3C[C@@]4(C=O)[C@@H](CC[C@@H]5[C@@H]4CC[C@]4(C)[C@@H](C6=CC(=O)OC6)CC[C@]54O)C[C@H]3O[C@@H]2O1` [CALACTIN], the GI50 is reported as active: 0.0112 µM.
`CNC(=O)CCC(NC(C)=O)C(=O)NC(Cc1ccc(NC(=O)CCCCC(C)=O)cc1)C(=O)NC(CCC(=O)NC)C(=O)NC` (stereo not given) was tested, and the GI50 was inactive: > 100 µM.
With `Nc1ncc(Sc2ccccc2C(=O)O)s1` the GI50 was inactive: > 100 µM.
For `O=C(CSc1nc2ccc(I)cc2c(=O)n1Cc1ccccc1)Nc1ccccc1`, the GI50 was inactive: 10.2 µM.
For `C=C[C@]1(C)CCC2=C(CCC3C2(C)CCC[C@]3(C)CO)C1` (stereo not given in full), the GI50 was inactive: > 100 µM.
For `COc1ccc(C2NC(N)=C(C#N)C3=C2C(C)CCC3)cc1OC` (stereo not given), the GI50 was inactive: 88.9 µM.
For `COc1cc2c(cc1OCCCCCOc1cc3c(cc1OC)C(=O)N1CCC[C@H]1C(=O)N3)N=C[C@@H]1CCCN1C2=O`, the GI50 was active: 0.288 µM.
With `CN(C)CCCSc1c2ccccc2nc2cc(NCC(=O)Nc3ccccc3-c3ccccc3NC(=O)CNc3ccc4c(SCCCN(C)C)c5ccccc5nc4c3)ccc12` the GI50 was inactive: > 100 µM.
In the case of `Cc1c(C(=O)CC(=O)C(=O)Nc2ccccc2C(F)(F)F)[n+]([O-])c2ccccc2[n+]1[O-]`, the GI50 is reported as inactive: 21.4 µM.
`NNC(=O)c1nnn(N)c1S` was tested, and the GI50 was inactive: > 100 µM.
With `CC1=NN(C(=O)Nc2ccccc2)C(=O)C2CCC(=O)N12` (stereo not given) the GI50 was inactive: > 100 µM.
`CCOC(=O)/C(=C/c1ccc[nH]1)P(=O)(OCC)OCC` was tested, and the GI50 was inactive: > 100 µM.
For `CC(=O)OCC1OC(n2c3c(cc(C#N)c2=O)CCCCCC3)C(OC(C)=O)C(OC(C)=O)C1OC(C)=O` (stereo not given), the GI50 was inactive: > 100 µM.
`CC(C)(C)C(=O)C(C(=O)C(C)(C)C)C(=O)C(C)(C)C` was tested, and the GI50 was inactive: > 100 µM.
With `O=C1c2ccccc2NC(=S)[C@@H]2CCCN12` the GI50 was inactive: > 100 µM.
In the case of `Cn1c(=O)c2c(nc3n2C(CCl)CO3)n(C)c1=O` (stereo not given), the GI50 is reported as inactive: > 100 µM.
In the case of `CC(=O)OCC1OC(SC2=NC(=O)CS2)C(OC(C)=O)C(OC(C)=O)C1OC(C)=O` (stereo not given), the GI50 is reported as inactive: > 100 µM.
`NC(=O)c1nnc2cc(F)ccc2c1N` was tested, and the GI50 was inactive: > 100 µM.
For `COc1cc(C2c3cc4c(cc3[C@@H](Nc3cccc(C(C)=O)c3)C3COC(=O)[C@H]23)OCO4)cc(OC)c1O` (stereo not given in full), the GI50 was inactive: 4.23 µM.
For `O=c1c2sc3nc(NCCN4CCCCC4)ncc3c2ncn1-c1ccccc1`, the GI50 was inactive: 40.7 µM.
With `O=C(O)CCc1coc2ccc(O)cc12` the GI50 was inactive: > 100 µM.
`S=C1SCC2CCCN12` (stereo not given) was tested, and the GI50 was inactive: > 100 µM.
For `CN(C)c1ccc(/C=C(\C#N)C(=O)c2ccccc2)cc1Br`, the GI50 was inactive: > 100 µM.
For `C#CCN(Cc1ccc2nc(OC)c(OC)nc2c1)c1cc(OC)c(OC)c(OC)c1`, the GI50 was inactive: 34.1 µM.
In the case of `O=C(c1ccc([N+](=O)[O-])cc1[N+](=O)[O-])N(/N=C/C=C/c1ccccc1)c1nnc(-c2ccccc2)c(-c2ccccc2)n1`, the GI50 is reported as inactive: 41.1 µM.
In the case of `COc1ccc(/C=c2\sc3nnc(CCC(=O)Nc4cccc(C(F)(F)F)c4)n3c2=O)cc1`, the GI50 is reported as inactive: > 100 µM.
For `COC(=O)C1CC(C(=O)OC)c2nc3cc(C)ccc3nc21` (stereo not given), the GI50 was inactive: > 100 µM.
`CN(C)CCCN1c2ccccc2Sc2cnccc21` was tested, and the GI50 was inactive: > 100 µM.
For `O=S(=O)(c1ccccc1)N1N=C2c3ccccc3CCC[C@H]2C1c1ccccc1` (stereo not given in full), the GI50 was inactive: > 100 µM.
For `CN(CCNC(=O)c1cc(-c2ccccc2)nc2ccccc12)CCNC(=O)c1cc(-c2ccccc2)nc2ccccc12`, the GI50 was inactive: 59.4 µM.
For `Nc1nc(Cl)cc(NCC2(O)CC2)n1`, the GI50 was inactive: > 100 µM.
With `C[N+](CCCl)(CCCl)Cc1cccc2cccc([N+](=O)[O-])c12` the GI50 was inactive: > 100 µM.
In the case of `CCCCCCOc1ccc(C(=O)NOCc2ccccc2)cc1`, the GI50 is reported as inactive: > 100 µM.
`O=C1C(O)=C(CC=C(Cl)Cl)C(=O)c2ccccc21` was tested, and the GI50 was inactive: 26.3 µM.
For `Cc1c(Cc2ccccc2)c(Cc2ccccc2)c(C)[s+]1[O-]`, the GI50 was inactive: 21.8 µM.
For `c1ccc2c3nnc(c2c1)SCCCSc1nnc(c2ccccc12)SCCCS3`, the GI50 was inactive: > 100 µM.
`O=C1N[C@@H](Cc2ccccc2)C(=O)N2CCC[C@@H]2C(=O)N[C@@H](CCCCCC(=O)[C@@H]2CO2)C(=O)N[C@H]1Cc1ccccc1` [TRAPOXIN B] (HELM PEPTIDE1{F.F.[dP].[O=C(CCCCC[C@H](N[*:1])C(=O)[*:2])[C@@H]1CO1]}$PEPTIDE1,PEPTIDE1,1:R1-4:R2$$$V2.0) was tested, and the GI50 was active: 0.0175 µM.
For `CC1(C)OC[C@@H]([C@H](O)C2C=CC(=O)S2)O1` (stereo not given in full), the GI50 was inactive: 33.7 µM.
With `c1ccc2c(Cc3c[nH]c4ccccc34)c[nH]c2c1` [ARUNDINE] the GI50 was inactive: 15.2 µM.
With `Cc1c(S(=O)(=O)N/C(=N\O)Nc2ccc(Cl)c(Cl)c2)sc2ccc(Cl)cc12` the GI50 was inactive: 22.4 µM.
For `Cc1c(/C=N/NC(=O)c2ccccc2)c(=O)n(-c2ccccc2)n1C`, the GI50 was inactive: > 100 µM.
With `COc1cccc2ccc(C(=O)c3ccccc3)nc12` the GI50 was inactive: > 100 µM.
In the case of `O=C1CCc2cc3c(cc21)CC1(Cc2cc4c(cc2C1)CCCC4)C3`, the GI50 is reported as inactive: > 100 µM.
In the case of `CCOC(=O)c1c2ccc(/C=C/c3ccccn3)ccc-2c(C(=O)OCC)c1N`, the GI50 is reported as active: 0.562 µM.
In the case of `CCOc1cc(/C=N\O)cc(/C=N/O)c1O`, the GI50 is reported as inactive: 44.6 µM.
For `Oc1c(OCc2nnc(CCCCCCCCc3nnc(COc4ccc5ccccc5c4O)o3)o2)ccc2ccccc12`, the GI50 was inactive: > 100 µM.
With `C=C(C(=O)O)[C@@H]1C[C@@H]2O[C@H]1CC(C)=CCC/C(C)=C/CC[C@@]2(C)O` the GI50 was inactive: > 100 µM.
In the case of `CC1(C)CCC2(C(=O)O)C(O)CC3(C)C(=CCC4C5(C)CCC(OC6OCC(O)C(O)C6OC6OCC(O)C(O)C6OC6OCC(O)C(OC7OC(CO)C(O)C(O)C7O)C6O)C(C)(C)C5CCC43C)C2C1` (stereo not given), the GI50 is reported as inactive: 34.7 µM.
`CCCCCCCCCCCC(=O)OCC(C[As](=O)(O)O)OC(=O)CCCCCCCCCCC` (stereo not given) was tested, and the GI50 was inactive: 18.5 µM.
In the case of `Fc1c(F)c(C(F)(F)F)c(F)c(F)c1N/N=C/c1cn(Cc2ccccc2)c2ccccc12`, the GI50 is reported as inactive: 21.4 µM.
With `CC(C)(C)OC(=O)NCCCCC1NC(=O)[C@@H]2Cc3c([nH]c4ccccc34)C(C3CCCCC3)N2C1=O` (stereo not given in full) the GI50 was inactive: 64 µM.
With `O=C(CCc1cc(-c2ccccc2)nc(S)n1)N(Cc1ccccc1)Cc1ccccc1` the GI50 was inactive: > 100 µM.
With `O=Cc1c(Cn2ccnc2)c2cc([N+](=O)[O-])ccc2n1Cc1ccccc1` the GI50 was inactive: 58.9 µM.
`CCOC(=O)C1C(c2ccc(OC)cc2)c2c(nn(-c3ccccc3)c2O)CC1(O)OCC` (stereo not given) was tested, and the GI50 was inactive: 44.4 µM.
With `N#Cc1ccc(Sc2ccccc2)cc1C#N` the GI50 was inactive: > 100 µM.
With `CN(C)c1ccc(C2CC(c3ccc4ccccc4c3O)=NN2)cc1` (stereo not given) the GI50 was inactive: 35.3 µM.
In the case of `CC1(C)OC(=O)CC12CCN(Cc1ccccc1)CC2`, the GI50 is reported as inactive: > 100 µM.
`CN(C)CN1C(=O)/C(=N\n2c(S)nnc2-c2ccncc2)c2ccccc21` was tested, and the GI50 was inactive: 80.9 µM.
With `COc1ccc(OC)c2c(=O)c3ccccc3[nH]c12` the GI50 was inactive: 60.4 µM.
With `COC(=O)C(=O)C(C(=O)C(=O)Nc1cccc(C(C)=O)c1)c1nc2ccccc2nc1O` (stereo not given) the GI50 was inactive: > 100 µM.
With `CNNC(=NS(=O)(=O)c1cc(C#N)c(NNC)cc1S)NNC` the GI50 was inactive: > 10 µM.
`CSC1(C)CC2C(CC1N1CCCCC1)C2(C)C` (stereo not given) was tested, and the GI50 was inactive: > 100 µM.
With `CCc1cccc(C(C)(C)C)c1NC(=S)N/C=C(/C#N)C(N)=O` the GI50 was inactive: > 100 µM.
In the case of `C=C1Oc2nc3ccccc3c(=O)n2C1(C)C`, the GI50 is reported as inactive: > 100 µM.
For `O=C(NC(=S)Nc1ccc([N+](=O)[O-])cc1)c1ccc2c(c1)Sc1ccccc1O2`, the GI50 was inactive: > 100 µM.
For `NCC(Cc1ccccc1)P(=O)(O)O` (stereo not given), the GI50 was inactive: > 100 µM.
`CN1CCN(c2ccc(-n3cc(C(=O)O)c(=O)c4cc(F)c(N5CCN(C)CC5)cc43)nc2)CC1` was tested, and the GI50 was inactive: > 100 µM.
For `CN(C)CCCNC(=O)CNC(=O)c1cc(NC(=O)c2cc(NC(=O)c3cc(NC(=O)CCNC(=O)c4cc(NC(=O)c5cc(NC(=O)c6nccn6C)cn5C)cn4C)cn3C)cn2C)cn1C`, the GI50 was inactive: > 100 µM.
In the case of `C=C1C(=O)CC2C1CC(=O)/C(C)=C/CCC(C)(O)C2O` (stereo not given), the GI50 is reported as inactive: 47.1 µM.

Source: ChEMBL document CHEMBL1201862, “PubChem BioAssay data set” (2004)
